Measured values from the supplement of paper PMC11417369.
± gives the standard deviation of the averaged measurements. Some of the results follow.

test system: PfAP2-LT AP2 domain (GST-tagged); assay: gcPBM binding intensity (ln(normalized median fluorescence intensity)); higher = stronger DNA binding
Method in brief: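 Binding of GST-tagged P. falciparum DNA-binding domains, expressed in E. coli and used at about 25 μg on average, was carried out for 1 h in 1× PBS containing 1% milk, 0.2 mg/ml BSA, 0.5% salmon testes DNA and 0.03% Triton X-100. The target was an Agilent 4 × 180k array of primer-extended double-stranded 36-bp intergenic genomic probes plus negative controls, read with Alexa488 anti-GST antibody at 488 nm. Binding intensity is the highest Masliner-normalised natural-log median intensity across replicate spots of either probe orientation.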

Sequence	gcPBM binding intensity (ln)
ATTAATAAATAAATGACACACACACCCACAAAAAAA [CACACA_site8839]	9.9 ± 0.12
AAAAAATTGTTTCCCTGTACTCAAAAAAAAAAAAAA [XGTACX_site8070]	8.2 ± 0.33
AAAAAAGAAAAGAAATGTACAGAGCTTATCTTTTTA [XGTACX_site5677]	8.61 ± 0.48
TTATTCCTATTTGGATGTACATTTTAATATAAACAT [XGTACX_site4386]	8.71 ± 0.4
TTCAATTTTACATGTAGTACATAAATTATACACAAA [XGTACX_site4946]	8.45 ± 0.32
TTTTTTAATTTTACATGTACATACAGGTTTTTTTTT [XGTACX_site4539]	8.76 ± 0.45
TAATAATAGTAAATATGTACATATATATATATATAG [XGTACX_site4602]	9.11 ± 0.38
TAAAATTTACGGTCTTGTTGCGCAACCAACATTGTC [CACACA_negctrl_site1175]	9.08 ± 0.44
GTTTTTTTTTTTTTGGTGCGTCATTTTCAAAAGAAG [GTGCAC_site9745]	8.57 ± 0.41
ATTACATATGTCGCTTGTACGCATAATTTTTTTATA [XGTACX_site5782]	8.99 ± 0.38
ATTTTTTTATTTTGAAGTACATAAACTTTATATATA [XGTACX_site1746]	8.43 ± 0.39
ATTTAAAAAAAAAGACGTACATTTATATAGAATCCT [XGTACX_site6457]	8.53 ± 0.47
TACACGCATAAACACACACACACACCCATATATATA [CACACA_site8114]	10.24 ± 0.05
TTTATATTTAAAGAAACATGCATTTATCATATATAC [TGCATGCA_site173]	8.58 ± 0.44
CAATTTATAAAGAAAACACACATATACCTATATACA [CACACA_site6710]	8.86 ± 0.38
TCTATAATATTTTTCACACACCATTTCCTTAAACAC [CACACA_site6747]	9.11 ± 0.45
AAAAAAATAAAATACAAAATGGCTATACAAAATAAA [GTGCAC_negctrl_site535]	8.85 ± 0.48
TTTGTTGACGAACACACACACATACATATTTATATA [CACACA_site7141]	9.47 ± 0.32
TTTTCCTTTCACAATGGTACACAAATATACATGCAA [XGTACX_site7244]	8.64 ± 0.38
ATTTTTTTTCGTAATTGTTCTTAATGTTGAATTATA [CACACA_negctrl_site1135]	8.7 ± 0.5
TAGTAATATGTATCCATACACACATACATTTTATTT [CACACA_site873]	9.04 ± 0.4
GTATAGTACAAATAAGTGCATATAAAAGAAATACAG	9.21 ± 0.45
ATAAATTTACATTTTTTTTTTTTTTTTTTTTTTTTT [GTGCAC_negctrl_site689]	8.63 ± 0.13

Sequence	gcPBM binding intensity (ln)
AAAAAATATACATATTGTACATTTTTTATTAACACA [XGTACX_site6415]	8.53 ± 0.54
TAATTTTTATTCAGTTCACACACGCTTTAATATTAT [CACACA_site9147]	9.13 ± 0.45
ATTACCAAAAAAAGGTGTACAAATATAATTATGAAA [XGTACX_site44]	8.79 ± 0.6
GGAATAACCGGACACACACACACATATATATATATA [CACACA_site5874]	10.39 ± 0.057
ATTTAAAATAGAAGTTATATTTATATGGGTGAAAAA [GTGCAC_negctrl_site296]	8.29 ± 0.48
TTATAAATAAAAAGAGTGCAATTATAAATATATATA	8.53 ± 0.57
AAAAAAATACAAATATGTACACATATATATTTAAAA [XGTACX_site4729]	8.83 ± 0.42
AAATAAAATATGAACAGTACTTTTGATATAACCATT [XGTACX_site1873]	8.81 ± 0.45
TCTAATCTGGAGAAAAGTACATAGTATCTGGTAACA [XGTACX_site2540]	8.62 ± 0.49
TTATTCATACAATATCGTACATATATATATATATAT [XGTACX_site1185]	9.505 ± 0.035
ATCTTATATATATGTGTGCACGTATATATAAGCAAT [GTGCAC_site9933]	9.15 ± 0.27
GTACACCTATAATATACACACAACAAATATGCACAT [CACACA_site6603]	9.28 ± 0.26
ATTATATATATATATACACACACATATATATATATA [CACACA_site8373]	9.47 ± 0.25
CACAAATATACAAATACACACAAATATACTCATATA [CACACA_site5339]	9.27 ± 0.39
GTACGTTTCTCCAGACTGCACTATACGACTCGTACA [GTGCAC_site9771]	9.03 ± 0.43
TGTATTCCTTTTTATAGTACAATTTAAAAGTATAAA [XGTACX_site2045]	8.13 ± 0.37
AGAAAGATGCAAGAAACATGCAAAAAAAAAATTTCT [TGCATGCA_site725]	8.84 ± 0.45
ATTTTTAATGGATAAGTGCATAATATTATGATGCAA	8.63 ± 0.43
TATGTAATAAAATATACACACAATATACTTATATAT [CACACA_site3682]	8.98 ± 0.33
AGCCACGGGTTATATACACACATAATCAAATAAAAT [CACACA_site6117]	9.12 ± 0.57
AAAAAATTATATAATAATAGAACTATACATTTTATT [GTGCAC_negctrl_site645]	8.44 ± 0.47
ACATAATATATATATTGTACAAATATATTATTGTTA [XGTACX_site3385]	8.7 ± 0.35
